Laboratory results as given in PubChem BioAssay AID1346428 (National Center for Advancing Translational Sciences (NCATS), 2018).
Values joined by “and” are separate entries in the source; they are usually repeats but may differ in a detail not shown here. Equal entries are not always repeated. The whole screen tested about 48,000 compounds, of which about 1,200 (2.5%) were called active. Not shown: some 2% with an inconclusive outcome.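 Rule for the calls: active = activation of at least 60% and not above a set upper limit (about 1 call in 100 departs from these limits); inconclusive = activation of 40% to 60%, or above that upper limit; inactive = activation under 40%.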 The list shows a part of the results.

target: Probable G-protein coupled receptor 32 (Homo sapiens) (UniProt O75388); experiment: qHTS for Agonists of Human Resolvin D1 Receptor DRV1; settings: CHO-K1 GPR32 beta-arrestin PathHunter luminescence, 90 min; at 76.9 µM; stronger effect = higher value; zero percent set by DMSO-only wells; note: 0% is about no effect
Sequence of UniProt O75388 (O75388 whole entry, looked up): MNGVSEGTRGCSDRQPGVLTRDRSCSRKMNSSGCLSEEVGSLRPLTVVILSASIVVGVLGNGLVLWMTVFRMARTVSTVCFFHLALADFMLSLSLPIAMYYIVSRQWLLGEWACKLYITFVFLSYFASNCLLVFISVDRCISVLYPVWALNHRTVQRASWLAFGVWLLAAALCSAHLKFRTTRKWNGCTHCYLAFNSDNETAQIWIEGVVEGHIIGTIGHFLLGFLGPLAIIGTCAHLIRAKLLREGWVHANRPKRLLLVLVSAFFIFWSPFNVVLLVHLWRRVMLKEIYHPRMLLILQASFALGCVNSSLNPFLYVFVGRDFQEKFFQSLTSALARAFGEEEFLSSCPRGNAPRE
Summary of the method: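 PathHunter beta-arrestin recruitment in CHO-K1 cells stably expressing ProLink-tagged GPR32. Cells were exposed to compound for 90 min at 37 C, then chemiluminescence was read after 1 h detection at ambient temperature; DMSO served as basal control.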

SMILES | activation
Cc1cccc(C)c1NC(=O)c1oc2ccc3c(c2c1C)C(=O)CC(C)(C)O3 | inactive: 9.19%
CCc1ccccc1NC(=O)Cn1c(=O)n(Cc2ccc3c(c2)OCO3)c(=O)c2ccc(C(=O)NC3CCCCC3)cc21 | inactive: -22.7%
Cc1ccccc1-c1nc(CS(=O)(=O)CC(=O)NCC(C)c2ccccc2)c(C)o1 (stereo not drawn) | active: 70%
CCc1ccc(OCC(=O)Nc2cc3oc4ccccc4c3cc2OC)cc1 | inactive: 37.4%
COc1cc(OC)c(NC(=O)C2CCCN(c3ncnc4c3nc3n4CCCCC3)C2)cc1Cl (stereo not drawn) | inactive: -10.1%
O=C(COc1ccccc1Cl)NCC1(N2CCOCC2)CCCCC1 | inactive: -26.7%
Cc1c(NC(=O)c2cccnc2)c(=O)n(-c2ccccc2)n1C | inactive: -20.9%
Cc1cccc(OCCn2c(-c3ccc(Cl)cc3)nc3ccccc3c2=O)c1 | inactive: 16.4%
CCCc1nn2c(=O)cc(COC(=O)c3cccc(NC(=O)COc4ccccc4C)c3)nc2s1 | inactive: 0.442%
O=C(NCCc1ccccc1)c1cnc2sc(N3CCCC3)nn2c1=O | inactive: -3.71%
CCN1CCN(CCCNC(=O)c2cc3c(=O)n(C)c4ccccc4c3s2)CC1 | inactive: 20.9%
CCCCOc1ccc(C(=O)N2CCN(CCc3ccncc3)CC2)cc1 | inactive: 24.7%
COC(=O)C1=C(CS(=O)(=O)c2cc(Cl)ccc2OC)NC(=O)NC1c1ccccc1 (stereo not drawn) | inactive: 37.7%
CC(=O)c1c(C)nc2nc(-c3ccccc3)nn2c1C | inactive: 45.2%
COc1ccccc1N1CCN(C(=O)c2nn(-c3ccc(C)cc3)c(=O)n(C)c2=O)CC1 | inactive: -9.24%
COCCCNC(=O)c1oc2c(c1C)-c1nn(Cc3cccc(Cl)c3)cc1CC2 | inactive: -5.98%
O=C(/C=C/c1ccc(O)cc1)c1ccc(O)cc1O | inactive: -17.6%
CC1Cc2cc(S(=O)(=O)N3CCN(c4ccccc4F)CC3)ccc2N1C(=O)C1CCC1 (stereo not drawn) | inactive: 6.02%
Cc1cc(F)ccc1S(=O)(=O)NCC(c1ccco1)S(=O)(=O)c1cccs1 (stereo not drawn) | inactive: -9.01%
CCOC(=O)c1ccc(Nc2c(-c3ccc(O)c(OC)c3)nc3nc[nH]n23)cc1 | inactive: -38.6%
Cc1cc2nnc(SCC(=O)Nc3ccc(F)c(Cl)c3)n2c2ccccc12 | inactive: 48%

SMILES | activation
C=C(C)CSc1nc2sc3c(c2c(=O)n1-c1ccccc1)CC(C(C)C)OC3 (stereo not drawn) | inactive: 5.29%
CCC1CN(C(=O)N2CCC(C(=O)NCc3cccc(C)c3)CC2)c2ccccc2O1 (stereo not drawn) | inactive: -11.7%
CCCCC(CC)CNC(=O)CN1C(=O)CSc2ccc(S(=O)(=O)N3CCOCC3)cc21 (stereo not drawn) | inactive: -22.9%
O=C(Cn1c(=O)nc(-c2ccccc2F)c2cc(Cl)ccc21)N1CCN(c2ccccc2F)CC1 | inactive: -20.4%
COc1ccc(CNC(=O)c2c3c(nc4ccccc24)C(=O)N(C2CCCCC2)C3)c(OC)c1 | inactive: 7.79%
COC(=O)c1scc(-c2ccc(C)cc2)c1S(=O)(=O)Nc1cc(OC)c(OC)c(OC)c1 | inactive: -5.9%
CCOc1ccccc1N(CC)C(=O)c1cc2c(=O)[nH]c3ccc(C)cc3c2s1 | inactive: -16.9%
Cc1ccc(NC(=O)/C(C#N)=C/c2ccc(C(C)C)cc2)cc1C | inactive: -1.58%
Clc1cccc(-n2ncc3c(N4CCCCC4)ncnc32)c1 | inactive: 31.3%
O=C(Cn1cc(S(=O)(=O)Cc2cccc(Cl)c2)c2ccccc21)NCCc1ccccc1 | inactive: -1.74%
CC(=O)Nc1nonc1-c1nnc(SCC(=O)N(C)c2ccccc2)n1C | inactive: 0.265%
CCN(c1cccc(C)c1)S(=O)(=O)c1ccc2[nH]cc(C(=O)NCCCOC)c(=O)c2c1 | active: 96.5%
COc1ccc(CNC(=O)C(=O)Nc2ccc(OC)cc2OC)cc1 | inactive: -0.113%
CCOC(=O)c1cnc2c(C)c(Cl)ccc2c1NCCc1ccccc1 | inactive: -4.52%
CCc1ccc(-c2nn(CC(=O)Nc3ccccc3)c3c2cnc2ccc(F)cc23)cc1 | inactive: 6.65%
CC(=O)NCc1c(I)c(NC(C)=O)c(I)c(C(=O)O)c1I | inactive: 9.27%
COc1ccc(N2CCN(C(=O)c3cn(CC(C)C)c(=O)c4c3c3ccccc3n4C)CC2)cc1 | inactive: -28.3%
O=C(Cn1c(=O)c2cccn2c2ccccc21)Nc1cc(F)ccc1F | inactive: -21.2%
CCOC(=O)c1cc(-c2ccccc2)n(-c2cccc(C(=O)Nc3ccc(OC)cc3)c2)c1C | inactive: -32.7%
CCOc1ccc(N(C(=O)Cn2nnc3ccccc32)C(C(=O)NCc2ccccc2)c2ccc(OC)cc2)cc1 (stereo not drawn) | inactive: -16.4%
CC(C)(C)C1CCc2c(sc(NC(=O)Cn3nnc(-c4ccccc4F)n3)c2C#N)C1 (stereo not drawn) | inactive: 20.4%

SMILES | activation
Cc1onc(-c2ccccc2Cl)c1C(=O)Oc1cc(F)cc(F)c1 | inactive: -39.5%
COC(=O)c1ccccc1NC(=O)Cn1c(=O)n(-c2cccc(OC)c2)c(=O)c2c(C)c(C(=O)N(C)C)sc21 | inactive: -6.7%
CCC(C(=O)NCCc1ccc(SC)cc1)n1nc(C)c2sc3ccccc3c2c1=O (stereo not drawn) | inactive: -33.3%
CC(=O)N1CCCc2cc(S(=O)(=O)N3CCC(C(=O)NCc4ccc(C)cc4)CC3)ccc21 | inactive: 0.806%
COc1ccc(-c2[nH]ncc2C(=O)NCc2ccccc2C)cc1 | inactive: -16%
COc1ccc(OCC(=O)OCc2cc(=O)n3nc(C4CCCCC4)sc3n2)cc1 | inactive: -9.26%
CC(=O)Nc1cccc(NC(=O)C(=O)NCCc2sc(-c3ccccc3)nc2C)c1 | inactive: 37.1%
CCN(CC)CCNC(=O)c1cn(CC)c2ccc(S(=O)(=O)N3CCOCC3)cc2c1=O | inactive: -12.6%
Cc1ccc(CCNC(=O)Cn2nc(-c3ccc(C)cc3)ccc2=O)cc1 | inactive: -19.2%
OCc1c[nH]c2ccccc12 | inactive: -21.9%
Cc1ccc(C)c(NC(=O)CSc2ncc(S(=O)(=O)c3ccc(C)c(Cl)c3)c(=O)[nH]2)c1 | inactive: -5.81%
O=C(Cn1ncc2ccc(Cl)cc21)NCc1ccc(F)cc1 | inactive: -19.6%
CSc1cccc(Nc2nc3c(S(=O)(=O)c4ccccc4)nnn3c3ccc(Cl)cc23)c1 | inactive: 3.77%
O=C(c1ccc2c(c1)N(Cc1ccc(F)cc1)C(=O)c1ccccc1S2=O)N1CCC(Cc2ccccc2)CC1 (stereo not drawn) | inactive: -6.35%
COc1ccccc1NC(=O)c1cccc(S(=O)(=O)N2CCCCCC2)c1 | inactive: -31.2%
CCc1ccc(CNC(=O)c2ccc(NC(=O)N3CCCCc4ccccc43)cc2)cc1 | inactive: -12.6%
COc1ccc(Cn2c(SCc3ccc(C(=O)NC(C)C)cc3)nc3cccnc32)cc1 | inactive: 3.04%
Cc1ccc(C(=O)Nc2cccc(C(=O)O)c2)cc1S(=O)(=O)N1CCCC1 | inactive: -2.42%
Cc1c(Cl)cccc1NC(=O)Nc1nnc(N2CCCCCC2)s1 | inactive: 3.19%
CCn1cc(C(=O)NCCCN2CCCC(C)C2)c(=O)c2cc(S(=O)(=O)N(C)C3CCCCC3)ccc21 (stereo not drawn) | inactive: -3.87%
Cc1cc(C)cc(-n2ccn(CC(=O)Nc3cc(C)ccc3C)c(=O)c2=O)c1 | inactive: -10.5%

SMILES | activation
Cc1ccc(N2CC(NC(=O)c3ccc(S(=O)(=O)N4CCCC4)cc3)CC2=O)cc1C (stereo not drawn) | inactive: 1.17%
COc1ccc(CCNc2nc(-c3ccc(OC)c(OC)c3)cc(C(F)(F)F)n2)cc1OC | inactive: -3.74%
Cc1cccc(CS(=O)(=O)Cc2ccc(C(=O)NCCc3ccccc3)o2)c1 | inactive: -9.77%
Cc1ccc(-c2cn(-c3cccc(Cl)c3)c(S(=O)(=O)CC(=O)Nc3cccc(C)c3)n2)cc1 | inactive: -26.7%
CCOC(=O)c1c(S(=O)(=O)N2CCCC(C(=O)NCc3cccc(OC)c3)C2)c(C)n(C)c1C (stereo not drawn) | inactive: -5.61%
COc1cccc(OC)c1C(=O)Nc1cccc(-c2cn3ccsc3n2)c1 | inactive: -13.3%
COc1ccc(-c2nnc(SCC(=O)NC3CCCC3)nc2-c2ccc(OC)c(OC)c2)cc1OC | inactive: -22.3%
CCOc1ccc(N2CC(c3nc4ccccc4n3Cc3ccccc3F)CC2=O)cc1 (stereo not drawn) | inactive: -5.56%
O=C(NCc1ccccc1)C1CCN(S(=O)(=O)c2ccc3c(c2)CCCN3C(=O)C2CCC2)CC1 | inactive: -14.6%
O=C(CCC1N=C2c3ccccc3N=C(SCc3cccc(F)c3)N2C1=O)NCc1cccs1 (stereo not drawn) | inactive: -22.4%
CCOC(=O)c1scc(-c2ccc(C)cc2)c1S(=O)(=O)N1CCN(c2ccccc2F)CC1 | inactive: -6.94%
CCOc1ccc(NC(=O)c2ccc(F)c(S(=O)(=O)N(CC)Cc3ccccc3)c2)cc1 | inactive: -11%
Cc1cccc(NC(=O)C(=O)NCC(c2cccnc2)N2CCc3ccccc3C2)c1C (stereo not drawn) | inactive: -22.2%
CCCCCSc1ncnc2c1sc1nc(N3CCOCC3)c3c(c12)CCCC3 | inactive: -4.95%
Cc1ccc(NC(=O)NCc2cccn2Cc2ccccc2)c(C)c1 | inactive: -14.4%
COc1ccc(OC)c(NC(=O)c2cc(S(=O)(=O)NCCc3ccc(Cl)cc3)ccc2F)c1 | inactive: -15%
CCC(C)NC(=O)Cn1c(=O)n(-c2ccc(C)c(C)c2)c(=O)c2c3c(sc21)CCCCC3 (stereo not drawn) | inactive: 7.11%
N[C@@H](Cc1c[nH]c2ccccc12)C(=O)O | inactive: -9.77%
CCOc1ccc(CCNC(=O)c2sc3ncccc3c2-n2cccc2)cc1OCC | inactive: -18.6%
Nc1cc(=O)[nH]c(N)n1 | inactive: -7.55% and inactive: -3.81%
